Common to all, as to assay: NCI anticancer screen, dose series, 48 h
Test [1] relates to A498 renal.
The test system of test [2] is IGROV1 ovarian.
Test [3] deals with NCI-H522 lung.
In test [4] the test system is CCRF-CEM leukemia.
Test [5] concerns COLO 205 colon.
Test [6] concerns EKVX NSCLC.
For test [7], the system named is NCI-H226 lung.
The subject of test [8] is OVCAR-4 ovarian.
In test [9] the test system is SNB-19 CNS.
Test [10] relates to U251 CNS.

Among the data in PubChem BioAssay (NCI) are GI50 and TGI values, retold here.

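The compound was tested at five concentrations on cells cultured in 96-well plates, with a 48-hour exposure period. GI50 is the concentration that inhibits growth by half.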 Some entries of the source have several records that differ or are many. Only these are listed. The source may hold further records. For part of these data: Records of one sample usually come from different ranges of test concentrations, not given here; a value can be the end of its range. For part of these data: The records of an entry are repeated measurements across runs, samples, wells, individuals or studies. Records carry a tag for their origin. Letters count within one entry.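 The concentration for full growth arrest is given as TGI.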

For `Cc1ccc(NS(=O)(=O)c2cccc(C#N)c2)c2[nH]cc(C#N)c12`, the GI50 in test [1] was 1.31 µM [sample A, mean of 3 tests] and 90.3 nM [sample B, mean of 2 tests]; in test [2] it was 37.9 nM [sample A, mean of 3 tests] and 634 nM [sample B, mean of 2 tests]; in test [3], 132 nM [sample A, mean of 3 tests] and 13.4 µM [sample B, mean of 2 tests].

`COC(=O)C12OCC34C(CC5C(C)C6=CC(=O)OC6=CC5(C)C3C(O)C1O)OC(=O)C(O)C24` (configuration not stated): the GI50 in [4] was 35.8 nM [1 test] and 460 nM [mean of 2 tests]. Moreover, the TGI was 540 nM [1 test] and 10.4 µM [mean of 2 tests] in [4]; 739 nM and > 19.6 µM in [5]; 547 nM and 11.4 µM in [6]; 280 nM and 3.11 µM in test [7]; 177 nM and 1.8 µM in [3]; 594 nM and 9.61 µM in test [8]. Further, the TGI in [9] was 755 nM and 9.8 µM; in test [10] it was 607 nM and 11 µM.
